Laboratory results taken from PubChem BioAssay AID624417 (National Center for Advancing Translational Sciences (NCATS), 2012).
In all, about 410,000 compounds went through this assay and about 6,400 (1.6%) were called active. Inconclusive results, whose numbers are uncertain, are shown with a selection of clear calls. The call rests on the fitted dose curve; in most records, active means well fitted inhibition curve with a large enough effect; inconclusive means small, poorly fitted or top-dose-only effect; inactive means no such curve, though single readings can be large or run the other way. Where the call is inconclusive, the potency comes from a doubtful curve fit.

Biological target: Glucagon-like peptide 1 receptor (Homo sapiens) (UniProt P43220)
Assay: qHTS of GLP-1 Receptor Inverse Agonists (Inhibition Mode); further: nearly all actives have a fitted effect of over 55% in size
Settings: HEK293 GLP-1R CRE-luciferase, luminescence, 24 h, GLP-1R form is constitutively active; activity change, negative = inhibition: at 38.3 µM (top of the series) unless noted
How it was run: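 Constitutively active GLP-1R drives a cAMP-responsive luciferase in stably transfected HEK293 cells; test compounds are added after overnight (12 h) attachment and left 24 hr, and signal loss in luminescence marks inhibition.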
On the % scale 0 is the no-effect control and ±100 the full control effect; potency means the concentration at half of the fitted maximal effect; tags describe the fitted curve by direction and shape.

Sequence of UniProt P43220 (P43220 whole entry, looked up): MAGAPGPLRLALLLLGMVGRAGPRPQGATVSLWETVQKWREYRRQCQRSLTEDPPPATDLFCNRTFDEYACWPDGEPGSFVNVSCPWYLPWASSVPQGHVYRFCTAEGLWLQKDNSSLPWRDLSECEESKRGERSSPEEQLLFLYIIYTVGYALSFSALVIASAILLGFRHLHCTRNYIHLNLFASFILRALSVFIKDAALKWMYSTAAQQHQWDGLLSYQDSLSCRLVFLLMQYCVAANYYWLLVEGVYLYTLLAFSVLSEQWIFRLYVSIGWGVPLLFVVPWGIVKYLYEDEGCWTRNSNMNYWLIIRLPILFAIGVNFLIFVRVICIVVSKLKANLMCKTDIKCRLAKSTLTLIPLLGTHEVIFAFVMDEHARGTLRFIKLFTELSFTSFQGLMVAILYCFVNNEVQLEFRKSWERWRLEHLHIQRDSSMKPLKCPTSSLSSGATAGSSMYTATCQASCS

Potency, inconclusive:
CC(C)CN(CC(C)C)S(=O)(=O)c1cc([N+](=O)[O-])ccc1N1CCCCCC1 10 µM [inhibitor, single point], CCOC(=O)c1c(C(C)(C)C)oc2ccc(O)cc12 11.2 µM [inhibitor, single point], C=C(C)c1cccc(C(C)(C)NC(=O)Nc2ccc(OC)nc2)c1 31.6 µM [inhibitor, partial curve, poor fit], O=C(CCN1C(=O)C2C3CCC(C3)C2C1=O)Nc1cccc(Cl)c1 (configuration not stated) 28.2 µM [inhibitor, single point], O=P(COc1ccccc1)(c1ccccc1)c1ccccc1 22.4 µM [inhibitor, single point], O=C(Cc1cccs1)N(Cc1cccs1)C1(C(=O)NC2CCCC2)CCCCC1 3.55 µM [inhibitor, single point], COc1ccc(Br)cc1CSC(=N)N 15.8 µM [inhibitor, single point], Cc1ccc(N(C(=O)Cn2nnc3ccccc32)C(C(=O)NCc2ccco2)c2ccc(C)o2)cc1 (configuration not stated) 11.2 µM [inhibitor, partial curve, poor fit], CC(=O)Nc1nonc1-c1nc2ccccc2n1CCC(C)C 12.6 µM [inhibitor, single point], Cn1c(CC(=O)NCCO)c(Sc2ccccc2)c2ccccc21 15.8 µM [inhibitor, single point], Cc1ccc(C(C(=O)Nc2ccc3c(c2)OCO3)N(C)C(=O)/C=C\c2ccc3c(c2)OCO3)cc1 (configuration not stated) 12.6 µM [inhibitor, partial curve, poor fit], CC1C(=O)N(Cc2cn(CCC3OCCO3)nn2)CCS(=O)(=O)N1Cc1ccc(-c2ccc(Cl)c(Cl)c2)cc1 (configuration not stated) 17.8 µM [inhibitor, single point], COc1cc(OC)cc(C(=O)N/N=C\c2ccoc2)c1 0.501 µM [inhibitor, full curve, poor fit], CC(=O)Nc1ccc(NC(=O)C2CCCN(S(=O)(=O)c3ccc(-n4cnnn4)cc3)C2)cc1 (configuration not stated) 0.316 µM [inhibitor, full curve, poor fit], COc1ccc(CN(C(=O)Cc2c[nH]c3ccccc23)C(C(=O)NC2CCCCC2)c2ccc(C)o2)cc1 (configuration not stated) 12.6 µM [inhibitor, single point], CC1=C[C@H]2Cc3cc(C)cc(C)c3S(=O)(=O)[C@@H]2C=C1 11.2 µM [inhibitor, partial curve, poor fit], CC(Oc1ccc(Cl)cc1)c1ccnn1S(=O)(=O)c1ccccc1 (configuration not stated) 31.6 µM [inhibitor, partial curve, poor fit], Cc1ccc(C)c(N(CC(=O)NC2CCCCC2)C(=O)c2csnn2)c1 31.6 µM [inhibitor, partial curve, poor fit], CC1CCN(CCOCCOc2ccc(Br)cc2Cl)CC1 10 µM [inhibitor, partial curve, poor fit], CC(C)(C)SCCNS(=O)(=O)c1ccc(C#N)cc1 31.6 µM [inhibitor, single point], N#Cc1nc(Cc2cccc3ccccc23)oc1NCc1ccco1 28.2 µM [inhibitor, single point], COc1ccc(C2(O)CC3CCC(C2)N3c2cc(C)nc(-c3ccccc3)n2)cc1 (configuration not stated) 12.6 µM [inhibitor, single point], COc1cccc(CNC(=O)Cn2c(=O)oc3cc(S(=O)(=O)N4CCCCC4)ccc32)c1 28.2 µM [inhibitor, single point], CCOc1ccccc1CNC(c1ccccc1)c1ccccc1 11.2 µM [inhibitor, single point], CC(C)(C)N(Cc1ccccc1)C(=O)COC(=O)c1ccc(S(=O)(=O)N2CCOCC2)cc1 11.2 µM [inhibitor, partial curve, poor fit], CC1=C(C(=O)NCc2ccc(Cl)cc2)C2(CCCCCC2)OC1=O 28.2 µM [inhibitor, single point], CCOC(=O)N1CCC(=NNc2nc3ccccc3s2)CC1 28.2 µM [inhibitor, single point], COc1ccc(NC(=O)Nc2nnc(N3CCCCCC3)s2)c(OC)c1 28.2 µM [inhibitor, single point], CCC(C(=O)OCC(=O)Nc1cc(Cl)ccc1Cl)c1ccccc1 (configuration not stated) 11.2 µM [inhibitor, single point], Cc1ccc(CNC(=O)c2ccc(F)c(S(=O)(=O)N3CCOCC3)c2)cc1 11.2 µM [inhibitor, single point], Fc1ccccc1CNc1cc(Cl)cc(Cl)c1 22.4 µM [inhibitor, single point], COc1ccc(NC(=O)NCCCCc2ccccc2)cc1OC 28.2 µM [inhibitor, single point], O=C(NCC1COc2ccccc2O1)c1cccc(S(=O)(=O)NCc2ccccc2)c1 (configuration not stated) 11.2 µM [inhibitor, partial curve]

Activity change, negative = inhibition, inactive:
O=C(COC(=O)c1cc(S(=O)(=O)N2CCCC2)ccc1O)NCCc1ccccc1 -2.78%, Cc1cnc(NC(=O)CC2OC(=O)c3ccccc32)s1 (configuration not stated) -24.7%, Cc1ccsc1/C=N/NC(=O)c1nnn(-c2nonc2N)c1CSc1ccccc1 -9.18%, O=C(CSc1n[nH]c(-c2ccccn2)n1)Nc1cccc(Cl)c1 -11.5%, O=C(NCCN1CCN(c2ccccc2)CC1)c1cccc(Cl)c1 -18.1%, O=C(NCC1CCCO1)c1csc(Nc2cccc3ccccc23)n1 (configuration not stated) -19.9%, CC(=O)NC(=S)Nc1ccc([N+](=O)[O-])cc1C 6.87%, N#Cc1nc(-c2ccco2)oc1N1CCN(c2cccc(Cl)c2)CC1 -1.96%, CC(C)CC(=O)NC(=S)N1CCCCCC1 -10.5%
